Over roughly 81,000 sequences, “one-hybrid fitness for binding NBS DNA” has its median near -0.1; the highest 2% begin near 0.36. This is one part of the list.
B1: Caulobacter ParB omega fusion; a variant is named by its letters at X, in order, B8GW30 (parent)
chain: MESVVVGEPGMSEGRRGLGRGLSALLGEVDAAPAQAPGEQLGGSREAPIEILQRNPDQPRRTFREEDLEDLSNSIREKGVLQPILVRPSPDTAGEYQIVAGERAWRAAQRAGLKTVPIMVRELDDLAVLEIGIIENVQRADLNVLEEALSYKVLMEKFERTQENIAQTIGKSXSHVANXMRLLXLPDEVQSYLVSGELTAXHARAIAAAADPVALAKQIIEGGLSVRETEALARKAPNLSAGKSKGGRPPRVKDTDTQALESDLSSVLGLDVSIDHRGSTGTLTITYATLEQLDDLCNRLTRGI

Variants of: B1
Assay: one-hybrid fitness for binding NBS DNA (the Noc-binding site; scaled: cognate 1, non-cognate 0); higher = stronger binding
Details: with NBS DNA site
How it was run: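 Fitness here means the log change in variant-to-wild-type read ratio between plasmids sequenced before and after selection. That scale was set so cognate equals 1 and non-cognate equals 0. The selection was a bacterial one-hybrid screen of Caulobacter ParB libraries, four specificity codons randomised, in E. coli USO carrying a HIS3 reporter with the site 19 bp from the promoter, grown 48 hours at 37°C on M9-minus-histidine with 0.1 mM IPTG and 5 mM 3-AT.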

Variant | one-hybrid fitness for binding NBS DNA
SYHE | ≤ 0.2
WSEL | ≤ 0.2
LPKL | ≤ 0.2
MDAW | ≤ 0.2
WDDR | ≤ 0.2
CHHE | ≤ 0.2
KKPM | ≤ 0.2
RHKW | ≤ 0.2
DDVR | ≤ 0.2
TLNY | ≤ 0.2
PRSI | ≤ 0.2
REVQ | ≤ 0.2
LLHI | ≤ 0.2
KKHL | ≤ 0.2
MMFG | ≤ 0.2
ATTP | ≤ 0.2
LTSW | ≤ 0.2
FPRV | ≤ 0.2
TKPT | ≤ 0.2
SKDP | ≤ 0.2
EESV | ≤ 0.2
DYSC | ≤ 0.2
EHDM | ≤ 0.2
QYQM | ≤ 0.2

Variant | one-hybrid fitness for binding NBS DNA
RFHY | ≤ 0.2
CVVF | ≤ 0.2
ALHE | ≤ 0.2
AFLG | ≤ 0.2
WWLN | ≤ 0.2
NTPL | ≤ 0.2
LHCT | ≤ 0.2
LNRH | ≤ 0.2
VPDM | ≤ 0.2
TQPL | ≤ 0.2
TIQF | ≤ 0.2
TDTC | ≤ 0.2
VDRL | ≤ 0.2
VGVK | ≤ 0.2
LHIV | ≤ 0.2
LQLA | ≤ 0.2
KRPK | ≤ 0.2
SRLY | ≤ 0.2
SAAV | ≤ 0.2
RNCI | ≤ 0.2
LEQE | ≤ 0.2
CVAT | ≤ 0.2
RPGT | ≤ 0.2
PPGC | ≤ 0.2

Variant | one-hybrid fitness for binding NBS DNA
HRTP | ≤ 0.2
MVES | ≤ 0.2
HLYS | ≤ 0.2
GQFR | ≤ 0.2
TFAW | ≤ 0.2
VHCK | ≤ 0.2
HDWC | ≤ 0.2
LFKS | ≤ 0.2
TADN | ≤ 0.2
NPIM | ≤ 0.2
VPDW | ≤ 0.2
AKNG | ≤ 0.2
GNDR | ≤ 0.2
GCSP | ≤ 0.2
FSKL | ≤ 0.2
GKHG | ≤ 0.2
LIMG | ≤ 0.2
KSPL | ≤ 0.2
NVLL | ≤ 0.2
PSLY | ≤ 0.2
RAVN | ≤ 0.2
EMPC | ≤ 0.2
GTWS | ≤ 0.2
CPVI | ≤ 0.2

Variant | one-hybrid fitness for binding NBS DNA
LTPR | ≤ 0.2
VMVV | ≤ 0.2
NTPR | ≤ 0.2
HDPT | ≤ 0.2
PFDV | ≤ 0.2
RSRN | ≤ 0.2
SAKY | ≤ 0.2
PNAC | ≤ 0.2
RVMY | ≤ 0.2
PNTW | ≤ 0.2
RHYR | 0.387
PYPA | ≤ 0.2
DKTH | ≤ 0.2
IRSK | ≤ 0.2
SGPA | ≤ 0.2
HLLC | ≤ 0.2
AISS | ≤ 0.2
KTLT | ≤ 0.2
WIAA | ≤ 0.2
KTHM | ≤ 0.2
PSMT | ≤ 0.2
MQGR | ≤ 0.2
ANAY | ≤ 0.2
LQCT | ≤ 0.2

Variant | one-hybrid fitness for binding NBS DNA
ELYL | ≤ 0.2
IQHT | ≤ 0.2
QSLC | ≤ 0.2
MGKR | ≤ 0.2
YNQW | ≤ 0.2
WVPR | ≤ 0.2
SKRR | ≤ 0.2
HGLR | ≤ 0.2
RKDE | ≤ 0.2
LGDG | ≤ 0.2
PQEV | ≤ 0.2
NTLA | ≤ 0.2
DNYA | ≤ 0.2
RVHA | ≤ 0.2
TNRR | ≤ 0.2
PIWC | ≤ 0.2
HPWV | ≤ 0.2
TSAK | ≤ 0.2
TKTE | ≤ 0.2
TLLA | ≤ 0.2
QCNQ | 0.222
LGQR | ≤ 0.2
GTRM | ≤ 0.2
IFTL | ≤ 0.2

Variant | one-hybrid fitness for binding NBS DNA
ITWS | ≤ 0.2
RFFY | ≤ 0.2
DTPT | ≤ 0.2
SQVV | ≤ 0.2
RATV | ≤ 0.2
RLWT | 0.23
VWVR | ≤ 0.2
FQGT | ≤ 0.2
HPGE | ≤ 0.2
VPYW | ≤ 0.2
KRPI | ≤ 0.2
GKDF | ≤ 0.2
VPRM | ≤ 0.2
LIHN | ≤ 0.2
KSSC | ≤ 0.2
RMLQ | ≤ 0.2
EHAP | ≤ 0.2
RLPG | ≤ 0.2
TAVA | ≤ 0.2
NHLS | ≤ 0.2
ILTV | ≤ 0.2
FPGG | ≤ 0.2
PHYA | ≤ 0.2
YNCG | ≤ 0.2

Variant | one-hybrid fitness for binding NBS DNA
VHCS | ≤ 0.2
NLFQ | ≤ 0.2
DWHR | ≤ 0.2
FRHW | ≤ 0.2
VMTR | ≤ 0.2
VDSG | ≤ 0.2
SVHT | ≤ 0.2
RIDT | ≤ 0.2
SPHD | ≤ 0.2
SLNM | ≤ 0.2
ACNC | ≤ 0.2
ICGT | ≤ 0.2
CYTG | ≤ 0.2
GVHT | ≤ 0.2
FKSS | ≤ 0.2
LNSW | ≤ 0.2
LQVC | ≤ 0.2
EPQM | ≤ 0.2
TSWQ | ≤ 0.2
PESC | ≤ 0.2
HYFS | ≤ 0.2
RFKN | ≤ 0.2
HTST | ≤ 0.2
FCAS | ≤ 0.2

Variant | one-hybrid fitness for binding NBS DNA
QQCG | ≤ 0.2
QNQT | ≤ 0.2
LVAM | ≤ 0.2
CVEC | ≤ 0.2
VDWK | ≤ 0.2
TIIY | ≤ 0.2
NMPV | ≤ 0.2
VARH | ≤ 0.2
PMNL | ≤ 0.2
GSWL | ≤ 0.2
NWEG | ≤ 0.2
MATL | ≤ 0.2
IDNM | ≤ 0.2
YALA | ≤ 0.2
CPRG | ≤ 0.2
SVAC | ≤ 0.2
QTDE | ≤ 0.2
MRHY | ≤ 0.2
QVHI | ≤ 0.2
PSQM | ≤ 0.2
REES | ≤ 0.2
TEPG | ≤ 0.2
SVTT | ≤ 0.2
PQIV | ≤ 0.2

Variant | one-hybrid fitness for binding NBS DNA
PSSW | ≤ 0.2
DLSC | ≤ 0.2
NPLR | ≤ 0.2
QASM | ≤ 0.2
LYSM | ≤ 0.2
QVGS | 0.299
SIAS | ≤ 0.2
RGHT | ≤ 0.2
RDGG | ≤ 0.2
HTKG | ≤ 0.2
VYNC | ≤ 0.2
SMPD | ≤ 0.2
LSGH | ≤ 0.2
ILTS | ≤ 0.2
QVQY | ≤ 0.2
RQET | 0.214
NEPW | ≤ 0.2
RMLH | ≤ 0.2
VRPF | ≤ 0.2
LSNS | ≤ 0.2
PQYG | ≤ 0.2
VPPV | ≤ 0.2
FYRG | ≤ 0.2
HDFT | ≤ 0.2

Variant | one-hybrid fitness for binding NBS DNA
SMRE | ≤ 0.2
LASD | ≤ 0.2
ILST | ≤ 0.2
PFCS | ≤ 0.2
QQHK | ≤ 0.2
WTKI | ≤ 0.2
TRLR | 0.276
SFMF | ≤ 0.2
VKTF | ≤ 0.2
HAVD | ≤ 0.2
YEKG | ≤ 0.2
YCHM | ≤ 0.2
RPIN | ≤ 0.2
KVAN | ≤ 0.2
AIKA | ≤ 0.2
KAME | ≤ 0.2
YKLS | ≤ 0.2
KCWS | ≤ 0.2
FAPG | ≤ 0.2
ALYT | ≤ 0.2
HGVM | ≤ 0.2
MGGF | ≤ 0.2
DTKT | ≤ 0.2
MDNL | ≤ 0.2

Variant | one-hybrid fitness for binding NBS DNA
NYRA | ≤ 0.2
PGQG | ≤ 0.2
HMLV | ≤ 0.2
ETSL | ≤ 0.2
TLVF | ≤ 0.2
RMVF | ≤ 0.2
KISC | ≤ 0.2
TNHR | ≤ 0.2
MLRL | ≤ 0.2
LCSP | ≤ 0.2
AEKS | ≤ 0.2
RNCV | ≤ 0.2
CCKY | ≤ 0.2
CNHT | ≤ 0.2
QPYP | ≤ 0.2
WPPM | ≤ 0.2
SGWW | ≤ 0.2
WTNS | ≤ 0.2
SACR | ≤ 0.2
KAKL | ≤ 0.2
SRGR | ≤ 0.2
KRKV | 0.302
VNCI | ≤ 0.2
WLSR | ≤ 0.2

Variant | one-hybrid fitness for binding NBS DNA
TSHL | ≤ 0.2
PETR | ≤ 0.2
FLCR | ≤ 0.2
TRFW | ≤ 0.2
PPIP | ≤ 0.2
FHDS | ≤ 0.2
EGGL | ≤ 0.2
CLLV | ≤ 0.2
WLQT | ≤ 0.2
SYQQ | ≤ 0.2
QMMT | 0.378
ANPF | ≤ 0.2
YCWG | ≤ 0.2
YRLG | ≤ 0.2
RVRH | 0.304
RVSW | ≤ 0.2
HCTP | ≤ 0.2
CQHY | ≤ 0.2
RKYT | 0.643
LLVD | ≤ 0.2
RAAA | ≤ 0.2
RHSQ | ≤ 0.2
RISI | ≤ 0.2
KNGR | ≤ 0.2

Variant | one-hybrid fitness for binding NBS DNA
GLVS | ≤ 0.2
DHCK | ≤ 0.2
VQLN | ≤ 0.2
IEPR | 0.427
AAPL | ≤ 0.2
KPIT | ≤ 0.2
DKVQ | ≤ 0.2
GGLG | ≤ 0.2
HLSF | ≤ 0.2
VPFF | ≤ 0.2
MVHW | ≤ 0.2
TDAA | ≤ 0.2
PQFC | ≤ 0.2
HGDN | ≤ 0.2
LHWV | ≤ 0.2
QREV | ≤ 0.2
QFCS | ≤ 0.2
RILK | ≤ 0.2
